Experimental data published in the RNAGym collection of RNA variant scans (doi:10.1093/nar/gkz1192).
Read counts are not given, so values of variants with three or more changes are uncertain.

B1: CPEB3 Ribozyme (parent)
chain: UAACAGGGGGCCACAGCAGAAGCGUUCACGUCGCAGCCCCUGUCAGAUUCUGGUGAAUCUGCGAAUUCUGCUGUAUAUCUC

Variants of: B1
Assay: self-cleavage, relative activity (ratio to wild type); higher = more cleavage; in vitro, sequencing
In short: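 Libraries of CPEB3 self-cleaving ribozyme mutants came from rounds of error-prone PCR and carried barcodes, which DNA sequencing matched to variants. In vitro transcription used T7 RNA polymerase at 37°C for 5 hours, with a further 15 min in DNase I before EDTA stopped the reaction; the ribozymes cleaved during both steps. The RNA was reverse transcribed with template switching and sequenced on Illumina. Relative activity is the cleaved/total read fraction of a variant divided by that of the unmutated ribozyme, averaged over three batches with at least 5 reads.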
A21G U51C G70U U80C showed a self-cleavage of 0.13. G22C U48C U72A gave a self-cleavage of 0.07. For A21U U31C A56G U76C, the self-cleavage was 0.45. Variant A21U A56U U72A has a self-cleavage of 0.13. Variant A21U C38U G46C A47G has a self-cleavage of 0.1. For G24A C44G C50U U66C, the self-cleavage was 0.06. With A21G U31A A35U A57G the self-cleavage was 0.09. C23U U41C U67A A77G showed a self-cleavage of 0.06. C23A C32U A56U A65U U69A U72A showed a self-cleavage of 0.05. For A21G U25C A35G U76C U78A, the self-cleavage was 0.07. Variant A21G G55A A64U C71G has a self-cleavage of 0.4. Variant A21G U43C U60C U66C U69A U76C has a self-cleavage of 0.09. With A21G U26C A77U the self-cleavage was 0.17. G24A A28U U49C U54A U78C showed a self-cleavage of 0.1. With A21G U43A U69C U80C the self-cleavage was 0.16. For A21G U48C A77U, the self-cleavage was 0.42. Work on G24A U41C U51G A64G U69C yielded a self-cleavage of 0.05. In the case of A21G U31C U49A, the self-cleavage is reported as 0.16. Work on C23U A57G U60A yielded a self-cleavage of 0.24. A21U U49A U58A U60A U67C U78C showed a self-cleavage of 0.06. A21G U26C U66C gave a self-cleavage of 0.4. In the case of C23U U41A A64G, the self-cleavage is reported as 0.3. In the case of A21G U41C U48C, the self-cleavage is reported as 0.36. In the case of A21U U41C U66A, the self-cleavage is reported as 1.06. With C23U U41C A57U the self-cleavage was 0.09. In the case of G24C U26C A35G U78C, the self-cleavage is reported as 0.06. For C23A U51A U66G, the self-cleavage was 0.16. Variant C23U A28U U66A has a self-cleavage of 0.12. A21U U25C U51C gave a self-cleavage of 0.14. A21G U51A U72A gave a self-cleavage of 0.3. In the case of C23A A35G U41A U58C U67C, the self-cleavage is reported as 0.07. Work on A21G U41C U43C yielded a self-cleavage of 0.31. In the case of A21G U49C U58C U66C U72C A75G, the self-cleavage is reported as 0. Work on G24A A56U C59U yielded a self-cleavage of 0.16. With A21G U43C G73A the self-cleavage was 0.36. Variant C23G U48C U51A U54A C68G has a self-cleavage of 0.09. A21U U25C U31C A35C U72C U76C U78A gave a self-cleavage of 0.13. In the case of G24A U60C U72A, the self-cleavage is reported as 0.11. In the case of A21U U66C U72C A77U, the self-cleavage is reported as 0.19. G24A A65G U72C showed a self-cleavage of 0.21. In the case of A21U U41A U43C G46U U72G, the self-cleavage is reported as 0.03. C23G A28G A47G gave a self-cleavage of 0.25. A21G U31A A35G U69A gave a self-cleavage of 0.56. Work on C23A A28U U54C G70C U78C yielded a self-cleavage of 0.06. Work on A21G U43C A56G A64G A65U yielded a self-cleavage of 0.11. Work on A21G U66C C68A yielded a self-cleavage of 0.3. A21G U49A U78G C81U gave a self-cleavage of 0.52. In the case of A21G U25C G36A C38A G46A U49C C71A, the self-cleavage is reported as 0.03. Variant C23A U72C A77G has a self-cleavage of 0.09. Variant C23U U41C A65G has a self-cleavage of 0.23. In the case of G22A U26C U69A A75U U76C, the self-cleavage is reported as 0.11. G22U G36C C38U A65G U78C showed a self-cleavage of 0.09. A21U A28G U31C U66A gave a self-cleavage of 0.41. G24A A28U U69C showed a self-cleavage of 0.11. G22A G36A U49C U69A gave a self-cleavage of 0. For G24C G52A U58C U80C, the self-cleavage was 0.2. C23U A47G A56G showed a self-cleavage of 0.16. C23U A47G A56G U69C U76C showed a self-cleavage of 0.07. In the case of A21G U43A A45U, the self-cleavage is reported as 0.6. In the case of G22A U54C U72C A77G, the self-cleavage is reported as 0.31. With A21G G53U U80C the self-cleavage was 0.84. Work on A21U U26C A56G yielded a self-cleavage of 0.08. In the case of G24A G36A U41C U43C A57G U58C, the self-cleavage is reported as 0.09. In the case of A21U U31A A35G, the self-cleavage is reported as 0.76. Work on G24A U31A U48C A56G A75C yielded a self-cleavage of 0.17. Work on A21G U51C U58C U66C U72A yielded a self-cleavage of 0.21. Variant A21U U25C U54A has a self-cleavage of 0.21. In the case of C23G C59A A64G C68A, the self-cleavage is reported as 0.16. A21G U25C U43A A56U U78A gave a self-cleavage of 0.07. With A21U U25C A35U A64G A77G the self-cleavage was 0.04. For G22U U41C U54A A75G, the self-cleavage was 0.2. With A21G U26G U43C G53A U60C U66C the self-cleavage was 0.21. C23U A28G C39U U48C U74C showed a self-cleavage of 0.08. In the case of G24C G36U A47U U51C, the self-cleavage is reported as 0.02. Work on A21G G36A U74C U76C yielded a self-cleavage of 0.31. With C23A U26A A35G U76A the self-cleavage was 0.35. Variant A21G G63C A64G U78A has a self-cleavage of 0.13. Variant A21G U25C G30U A64U has a self-cleavage of 0.06. In the case of A21G U51A U69C C79G, the self-cleavage is reported as 0.27. Work on G24A U43C A56G A64U yielded a self-cleavage of 0.07. A21G U26A U41C A57U U67C showed a self-cleavage of 0. Variant G22A C38U U41C G63U has a self-cleavage of 0.05. In the case of A21U U25C G55U U60C U80C, the self-cleavage is reported as 0.08. A21G U74C C81U gave a self-cleavage of 1.07. In the case of A21U U48C U49A U54A A75G U78C, the self-cleavage is reported as 0.07. For C23A G53C U58A U78C, the self-cleavage was 0.19. For A21G U25C U31C U67C A75G, the self-cleavage was 0.07. In the case of G24A A28C G42U C71U, the self-cleavage is reported as 0.1. Variant A21G U26G G55A A65U has a self-cleavage of 0.07. Work on C23U U76C A77U yielded a self-cleavage of 0.23. For A21G U26A U41C U60C, the self-cleavage was 0.08. With A21G U26C C44A the self-cleavage was 0.13. With A21G U51G A64G U80C the self-cleavage was 0.62. Work on A21G U48C U67C yielded a self-cleavage of 0.12. Work on C23U C38U A64G A65G U66C U72C yielded a self-cleavage of 0.06. With C23U C29A U54C U76C the self-cleavage was 0.08. Variant A21G U26A U54C U60C has a self-cleavage of 0.18. In the case of C23U A35U U43C U49C U67C U69C U80C, the self-cleavage is reported as 0.07. A21U U43C U49A A57G showed a self-cleavage of 0.11. In the case of A21G U31A A57G C81A, the self-cleavage is reported as 0.31. With C23G C34G U48C U51C G55A the self-cleavage was 0.15. Variant A21G U26C C34G U69C has a self-cleavage of 0.33. With A21G U54A U72A the self-cleavage was 0.26. G22C G55C U66C showed a self-cleavage of 0.13. A21G U43A A56G gave a self-cleavage of 0.71. A21G U26C A56G U74G gave a self-cleavage of 0.57. For G24A A28G U41C U80C, the self-cleavage was 0.28. With G22A U25C A35U A47G the self-cleavage was 0.05. Work on C23A U43C A56U yielded a self-cleavage of 0.16. A21U U60A U69C showed a self-cleavage of 0.08. With G22U U43C U69A the self-cleavage was 0.44. C23G U26C A57G U58C U76C gave a self-cleavage of 0.06. G22C U49C C62U A64U gave a self-cleavage of 0.05. For C23A G36U C38A U41C A56G, the self-cleavage was 0.07. In the case of C23G U25C U26C A35G U72A A75G U80C, the self-cleavage is reported as 0.09. In the case of C23G A28G U31A U51C U74C, the self-cleavage is reported as 0.19. With A21U C32U C39G U43G the self-cleavage was 0.22. In the case of G24A U31C C39A A56G U60A A64G, the self-cleavage is reported as 0.05. G22A A64G A77U showed a self-cleavage of 0.22. A21G U25C U48C A57G U60C U76C showed a self-cleavage of 0.35. With G24C C29A A65G the self-cleavage was 0.16. Work on A21U U31A A45G U49C U76C yielded a self-cleavage of 0.11. C23U A35G U41C U54C gave a self-cleavage of 0.62. G24A U54C A56G gave a self-cleavage of 0.09. Variant A21U U41A U43C has a self-cleavage of 0.17. With C23U A47G U72A the self-cleavage was 0.52. Variant A21G U26C A28G has a self-cleavage of 0.36. For A21G U25C A35G U69A A75U, the self-cleavage was 0.08. Work on C23A A28G U54C C79U yielded a self-cleavage of 0.13. A21G U26C U54G showed a self-cleavage of 0.22. Variant A21U G24A A47G U54C U74C has a self-cleavage of 0.27. Variant A21U U31C A35G has a self-cleavage of 0.37. In the case of A21G U41C U54C A65G, the self-cleavage is reported as 0.33. A21U U25A A35U U72G U74C gave a self-cleavage of 0.05. A21G U26C U80C gave a self-cleavage of 0.45. With C23U A45G U49A C62A U74C the self-cleavage was 0.18. G22C U60C U76C gave a self-cleavage of 0.14. Work on A21U C37A U51A U78C yielded a self-cleavage of 0.18. Variant G24A A47G U54C has a self-cleavage of 0.39. A21G U26A A64U U67C U69A U72C U80C gave a self-cleavage of 0.09. Variant G22A U31C U43C A47G A57U U67C A77U has a self-cleavage of 0.04. A21G U31G A45G A56C U72A showed a self-cleavage of 0.04. Variant A21U U41C U80A has a self-cleavage of 0.3. Variant G22A U48C A56G U60G G73A has a self-cleavage of 0.14. A21G U31C A47G showed a self-cleavage of 0.19. Variant A21G U25C A28G has a self-cleavage of 0.58. A21G U43G A47G A64G U74C showed a self-cleavage of 0.28. With A21G U51C U54A the self-cleavage was 0.12. Variant G24A U51A U69C has a self-cleavage of 0.08. For A21G U25G U31A C68U, the self-cleavage was 0.08. With A21G U60C A64G the self-cleavage was 0.32. With A21G U74C U80A the self-cleavage was 1.16. A21U A28U U78C gave a self-cleavage of 0.09. C23A C40U A57G showed a self-cleavage of 0.13. A21G U54C C62U U69C U78A showed a self-cleavage of 0.04. Variant A21G U26C A47G U78C has a self-cleavage of 0.3. G24A A35U C40U A45G U67C A75G U78C gave a self-cleavage of 0.17. For A21G U26C C39U A64G, the self-cleavage was 0.11. For A21G U43G A45G A57G A64G, the self-cleavage was 0.18. A21G U31C U43C U60A gave a self-cleavage of 0.09. G22U A35U A45C U76C U78C showed a self-cleavage of 0.27. With G24A A57U G63C U72C U80A the self-cleavage was 0.05. G22A C23U U26C U49G gave a self-cleavage of 0.09. For G24A U49C U72A, the self-cleavage was 0.11. For G22C U76A C81A, the self-cleavage was 0.2. In the case of C23A A47G U51C A64G U76C, the self-cleavage is reported as 0.28. Variant C23U U26C U54C U60C U67C U76A A77U has a self-cleavage of 0.04.
